# Source: the supplement of paper PMC10037445
# Over roughly 2,900 compounds, “IRF Lucia reporter activity, fold change vs agonist alone” has its median near 0.9; the highest 2% begin near 2.8. Some of the results follow.
# What was measured:
# RAW-Dual [1] = experiment: IRF Lucia reporter activity, fold change vs agonist alone; cytotoxicity flag (confluency mask): not cytotoxic; higher = enhanced IRF activity
# How it was run: (§1)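 Cytotoxic wells were those whose IncuCyte confluency was below 70% of agonist controls in both mask sets. The cells were RAW-Dual macrophages at 50,000 cells/well in DMEM on 384-well plates, dosed with 50 nL of library stock by pin tool, stimulated with a PRR agonist 1 h later, and kept at 37 °C, 5% CO2 for 20 hours. IRF and NF-κB reporter activity, as fold change over agonist-alone wells, came from supernatant read by QuantiLuc luminescence and QuantiBlue absorbance, respectively.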
# RAW-Dual [2] = experiment: IRF Lucia reporter activity, fold change vs agonist alone; higher = enhanced IRF activity; conditions: library stock concentration (final ~1000-fold dilution): 10 mM, agonist: MPLA (TLR4) […]
# How it was run: as §1
# RAW-Dual [3] = experiment: IRF Lucia reporter activity, fold change vs agonist alone; cytotoxicity flag (confluency mask): cytotoxic (confluency <70% of control); higher = enhanced IRF activity
# How it was run: as §1
# [4] = agonist: 3'3'-cGAMP (STING) 10 ug/mL
# [5] = cytotoxicity flag (confluency mask): not cytotoxic
compound,measurement,setting,value
CNc1ccc([N+](=O)[O-])cc1-n1cnc(-c2ccc(C(F)(F)F)cc2)c1 (library stock concentration (final ~1000-fold dilution): 10 mM),IRF Lucia reporter activity,RAW-Dual [1]; [4],1.42
same,IRF Lucia reporter activity,RAW-Dual [1]; agonist: LPS (TLR4) 0.1 ug/mL,1.1
CN(C)Cc1ccc(-c2nc3cccc4c3n2CCNC4=O)cc1 (library stock concentration (final ~1000-fold dilution): 10 mM),IRF Lucia reporter activity,RAW-Dual [1]; [4],0.869
same,IRF Lucia reporter activity,RAW-Dual [1]; agonist: LPS (TLR4) 0.1 ug/mL,0.3
CN(C)Cc1ccc(-c2nc3cccc4c3n2CCNC4=O)cc1,IRF Lucia reporter activity,RAW-Dual [2]; [5],0.213
Cl.O=C(NC1CCNCC1)c1n[nH]cc1NC(=O)c1c(Cl)cccc1Cl (library stock concentration (final ~1000-fold dilution): 10 mM),IRF Lucia reporter activity,RAW-Dual [3]; [4],0.0898
same,IRF Lucia reporter activity,RAW-Dual [3]; agonist: LPS (TLR4) 0.1 ug/mL,0.581
Cc1[nH]c(/C=C2\C(=O)Nc3ccc(S(=O)(=O)N(C)c4cccc(Cl)c4)cc32)c(C)c1C(=O)N1CCN(C)CC1 (library stock concentration (final ~1000-fold dilution): 10 mM),IRF Lucia reporter activity,RAW-Dual [1]; [4],0.407
same,IRF Lucia reporter activity,RAW-Dual [1]; agonist: LPS (TLR4) 0.1 ug/mL,0.628
Cc1[nH]c(/C=C2\C(=O)Nc3ccc(S(=O)(=O)N(C)c4cccc(Cl)c4)cc32)c(C)c1C(=O)N1CCN(C)CC1,IRF Lucia reporter activity,RAW-Dual [2]; [5],0.525
CCCCCCc1ccc(O)cc1O,IRF Lucia reporter activity,RAW-Dual [2]; [5],1.17
CCCCCCc1ccc(O)cc1O (library stock concentration (final ~1000-fold dilution): 10 mM),IRF Lucia reporter activity,RAW-Dual [1]; [4],0.772
same,IRF Lucia reporter activity,RAW-Dual [1]; agonist: LPS (TLR4) 0.1 ug/mL,1.02
CC1(C)NC(=O)N(c2ccc([N+](=O)[O-])c(C(F)(F)F)c2)C1=O,IRF Lucia reporter activity,RAW-Dual [2]; [5],1.09
CC1(C)NC(=O)N(c2ccc([N+](=O)[O-])c(C(F)(F)F)c2)C1=O (library stock concentration (final ~1000-fold dilution): 10 mM),IRF Lucia reporter activity,RAW-Dual [1]; [4],1.02
same,IRF Lucia reporter activity,RAW-Dual [1]; agonist: LPS (TLR4) 0.1 ug/mL,1.53
C=CC(=O)N1CC/C(=C\c2ccc(F)c([N+](=O)[O-])c2)C(=O)/C(=C/c2ccc(F)c([N+](=O)[O-])c2)C1 (library stock concentration (final ~1000-fold dilution): 10 mM),IRF Lucia reporter activity,RAW-Dual [1]; [4],0.00954
same,IRF Lucia reporter activity,RAW-Dual [1]; agonist: LPS (TLR4) 0.1 ug/mL,0.0106
O=C(Nc1c(Cl)cncc1Cl)c1ccc(OC(F)F)c(OCC2CC2)c1 (library stock concentration (final ~1000-fold dilution): 10 mM),IRF Lucia reporter activity,RAW-Dual [1]; [4],0.881
same,IRF Lucia reporter activity,RAW-Dual [1]; agonist: LPS (TLR4) 0.1 ug/mL,0.885
O=C(Nc1c(Cl)cncc1Cl)c1ccc(OC(F)F)c(OCC2CC2)c1,IRF Lucia reporter activity,RAW-Dual [2]; [5],0.965
CCOC(=O)OC(C)OC1=C(C(=O)Nc2ccccn2)N(C)S(=O)(=O)c2ccccc21 (centres undefined),IRF Lucia reporter activity,RAW-Dual [2]; [5],1.12
CCOC(=O)OC(C)OC1=C(C(=O)Nc2ccccn2)N(C)S(=O)(=O)c2ccccc21 (centres undefined) (library stock concentration (final ~1000-fold dilution): 10 mM),IRF Lucia reporter activity,RAW-Dual [1]; [4],1.13
same,IRF Lucia reporter activity,RAW-Dual [1]; agonist: LPS (TLR4) 0.1 ug/mL,1.32
Cc1cccc(-c2[nH]c(CNc3ccccc3F)nc2-c2ccc3ncnn3c2)n1,IRF Lucia reporter activity,RAW-Dual [2]; [5],0.816
Cc1cccc(-c2[nH]c(CNc3ccccc3F)nc2-c2ccc3ncnn3c2)n1 (library stock concentration (final ~1000-fold dilution): 10 mM),IRF Lucia reporter activity,RAW-Dual [1]; [4],0.453
same,IRF Lucia reporter activity,RAW-Dual [1]; agonist: LPS (TLR4) 0.1 ug/mL,0.83
CCCS(=O)(=O)Nc1ccc(F)c(C(=O)c2c[nH]c3ncc(-c4ccc(Cl)cc4)cc23)c1F,IRF Lucia reporter activity,RAW-Dual [2]; [5],0.473
CCCS(=O)(=O)Nc1ccc(F)c(C(=O)c2c[nH]c3ncc(-c4ccc(Cl)cc4)cc23)c1F (library stock concentration (final ~1000-fold dilution): 10 mM),IRF Lucia reporter activity,RAW-Dual [1]; [4],0.195
same,IRF Lucia reporter activity,RAW-Dual [1]; agonist: LPS (TLR4) 0.1 ug/mL,0.356
C[C@@H]1O[C@@H](O[C@H]2[C@H](Oc3cc(O)c(C(=O)CCc4ccc(O)cc4)c(O)c3)O[C@H](CO)[C@@H](O)[C@@H]2O)[C@H](O)[C@H](O)[C@H]1O (library stock concentration (final ~1000-fold dilution): 10 mM),IRF Lucia reporter activity,RAW-Dual [1]; [4],1.06
same,IRF Lucia reporter activity,RAW-Dual [1]; agonist: LPS (TLR4) 0.1 ug/mL,0.758
CCCCNC(=O)NS(=O)(=O)c1ccc(C)cc1 (library stock concentration (final ~1000-fold dilution): 10 mM),IRF Lucia reporter activity,RAW-Dual [1]; [4],0.997
same,IRF Lucia reporter activity,RAW-Dual [1]; agonist: LPS (TLR4) 0.1 ug/mL,1.02
CCCCNC(=O)NS(=O)(=O)c1ccc(C)cc1,IRF Lucia reporter activity,RAW-Dual [2]; [5],1.05
CCCC(C(=O)OCCN(CC)CC)(c1ccccc1)c1ccccc1.Cl (library stock concentration (final ~1000-fold dilution): 10 mM),IRF Lucia reporter activity,RAW-Dual [3]; [4],0.573
same,IRF Lucia reporter activity,RAW-Dual [3]; agonist: LPS (TLR4) 0.1 ug/mL,1.64
CCCC(C(=O)OCCN(CC)CC)(c1ccccc1)c1ccccc1.Cl,IRF Lucia reporter activity,RAW-Dual [2]; cytotoxicity flag (confluency mask): cytotoxic (confluency <70% of control),1.46
O=C(O)c1cc(-c2ccc(F)cc2F)ccc1O,IRF Lucia reporter activity,RAW-Dual [2]; [5],1.11
O=C(O)c1cc(-c2ccc(F)cc2F)ccc1O (library stock concentration (final ~1000-fold dilution): 10 mM),IRF Lucia reporter activity,RAW-Dual [1]; [4],1.02
same,IRF Lucia reporter activity,RAW-Dual [1]; agonist: LPS (TLR4) 0.1 ug/mL,1.28
COC(=O)NC(C(=O)N1CCCC1C(=O)Nc1ccc(C2CCC(c3ccc(NC(=O)C4CCCN4C(=O)C(NC(=O)OC)C(C)C)cc3)N2c2ccc(C(C)(C)C)cc2)cc1)C(C)C (centres undefined) (library stock concentration (final ~1000-fold dilution): 10 mM),IRF Lucia reporter activity,RAW-Dual [1]; [4],0.995
same,IRF Lucia reporter activity,RAW-Dual [1]; agonist: LPS (TLR4) 0.1 ug/mL,1.21
COC(=O)NC(C(=O)N1CCCC1C(=O)Nc1ccc(C2CCC(c3ccc(NC(=O)C4CCCN4C(=O)C(NC(=O)OC)C(C)C)cc3)N2c2ccc(C(C)(C)C)cc2)cc1)C(C)C (centres undefined),IRF Lucia reporter activity,RAW-Dual [2]; [5],0.973
